Measured values as given in the supplement of paper PMC11417369.
± gives the standard deviation of the averaged measurements. The list shows a part of the results.

tested on: PfAP2-G AP2 domain (GST-tagged); test: gcPBM binding intensity (ln(normalized median fluorescence intensity)); higher = stronger DNA binding
Procedure, shortened: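 For binding intensity, the highest Masliner-normalised natural-log median intensity across replicate spots of either probe orientation was taken. Protein bound to the array was stained with Alexa488 anti-GST antibody and scanned at 488 nm. The protein, GST-tagged P. falciparum DNA-binding domains from E. coli at about 25 μg on average, had been applied for 1 h to an Agilent 4 × 180k array of primer-extended double-stranded 36-bp intergenic genomic probes and negative controls.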

Sequence | gcPBM binding intensity (ln)
ATATAAAAAAAAAATTGTACAAAAATATATACATAT [XGTACX_site469] | 10.9 ± 0.26
GCATATATGGATATATAGGTATATATAAATGCAATA [GTGCAC_negctrl_site24] | 9.71 ± 0.24
CCTCTCATTTTATATAGTACATATTTCAAAAAAAAA [XGTACX_site488] | 10.9 ± 0.76
AGGAGGATAGTTCACAGTACCCAGTAACTCTACGGA [XGTACX_site1997] | 10.7 ± 0.37
TATAAAGATATAAATGCACACGTATTAAAAAAAAAA [CACACA_site8223] | 10.3 ± 0.18
TAATTTTTTTTAAACACACACATTACATTCAAAAAT [CACACA_site127] | 10.1 ± 0.26
TTCACTAATAAATACGCACACATATACATATATATA [CACACA_site1383] | 10.5 ± 0.43
TTTCAAATATATATAGCACACAAGGTATAATATAAA [CACACA_site877] | 9.895 ± 0.021
TTTTAATTAGTACAAACACACATATACACCCAAAAA [CACACA_site5422] | 11.4 ± 0.93
ATATAAAAAAGGGAGGTAAATGAATGTGAAACCCAA [GTGCAC_negctrl_site359] | 10.2 ± 0.13
CTAATATAGGTATGCACACACAATATGTACATATTT [CACACA_site7558] | 11.5 ± 0.7
TAATTGTAGACATGCACACACAAATATTATATATGT [CACACA_site845] | 10.14 ± 0.064
TATATATGTATATATTGTACTTTAAGACAAATATAT [XGTACX_site1052] | 11.1 ± 0.65
AATATTTTTCAATTTCATGTGCATTCATTGAAGTTA [CACACA_negctrl_site1232] | 9.78 ± 0.11
TTCTTAAATATATTCAACATACATAATATATAATCT [CACACA_negctrl_site1806] | 9.68 ± 0.13
CGTTATATAATAAAGGTGCATAGATATATCATTATA [GTGCAC_site9774] | 9.99 ± 0.23
TATATAACATATATATGTACACATAATATCAGATTT [XGTACX_site1041] | 11.4 ± 0.99
AAGGTATAGAAACACACACACGTGAATATAGTTTAA [CACACA_site5109] | 10.01 ± 0.028
AGGATATATTATATGTACACACACATATAAGGGATT [GTGCAC_negctrl_site47] | 11.4 ± 0.79
TATTACACACAATATTGTACACATAGGAAAAATATT [XGTACX_site1726] | 11.4 ± 0.91
GCATTTATGAAAAATGTACACACATCAAATGCTTAT [CACACA_site9347] | 11.2 ± 0.83
ACAAAAATATTTGTAAAAAGAAATATAAATAAATAA [TGCATGCA_negctrl_site357] | 9.725 ± 0.092

Sequence | gcPBM binding intensity (ln)
AAAAATAGAGCAGCTCTCATATTTTTATGTGCAATA [CACACA_negctrl_site837] | 9.69 ± 0.071
AAATAAAATAAAAGCACACAAAATGTAAATAATTAT [CACACA_site2775] | 10.01 ± 0.035
GATTATCTATCGCTTGAATGAAATGAAATCATGCAA [GTGCAC_negctrl_site471] | 9.725 ± 0.064
ATAATAAATGATAGCACACATATGTACATATATACA [CACACA_site864] | 11.3 ± 0.64
AATACCGGAAAGCAAACACACATTTTAAAACCATAA [CACACA_site3862] | 10.2 ± 0.2
AAAGAAATAAAAAAAAGTACACAATTATAAATATAT [XGTACX_site3428] | 11.5 ± 0.93
GTATGTAATATTTTAGTGCAAAAAAAAAAAAAAAAA [GTGCAC_site9790] | 9.8 ± 0.4
AAAATACTTTGAATTTGTACATATAGACATAATATT [XGTACX_site6181] | 10.7 ± 0.38
CGCGAACATACATACACACACATATTTATATAGGTA [CACACA_site6241] | 10.1 ± 0.042
TTCTGCTACCACTTGAATGTCAATGAAATTAAAAAA [CACACA_negctrl_site1164] | 10.6 ± 0.74
TATATATATATAATTTGTACATATATATGTAACAAT [XGTACX_site8728] | 11.1 ± 0.69
ATACAATACACCGAACGTACATAAATCTATCTTTTA [XGTACX_site3668] | 11.1 ± 0.69
ATTTTTTTTTTTACAGTGGAACCATATTTGCTCATT [CACACA_negctrl_site940] | 10.3 ± 0.38
ATTTATAAAACAGGCACACATATAATAAATTTTATA [CACACA_site2600] | 10.05 ± 0.092
TAATAATTATTGCACGCACACAAAAACCTATAGATT [CACACA_site2931] | 10.4 ± 0.27
ACTATAAATATTTATAAACACACAAATATATATATT [CACACA_site7891] | 10.2 ± 0.18
TTTTAATTAAAAAAATATATAATAAAATTAAATTAT [CACACA_negctrl_site95] | 9.69 ± 0.11
GGTATATAAAAATATTGTACGAAAATATGCATATAA [XGTACX_site2501] | 10.9 ± 0.5
CAAAAAAAATTATACACACACACACCGATATATATA [CACACA_site4719] | 10.07 ± 0.057
TTTATATATCAATACATTATGTATTAAGTCTTACAT [TGCATGCA_negctrl_site499] | 9.96 ± 0.13
AGGAACAATATATTTGCACACAAAAAATATATATTT [CACACA_site3316] | 10.03 ± 0.042
TTTTAAAAAAAACAAAAACATTGTCATATGGAAAAT [CACACA_negctrl_site297] | 10.2 ± 0.13

Sequence | gcPBM binding intensity (ln)
GTATGTTAATTTAATTGTACAAAAAGATACACTGAT [XGTACX_site5710] | 11 ± 0.56
AAATATAAAAAATATACACACATATAAAATCTATAT [CACACA_site7406] | 9.72 ± 0.13
ATTTAATTCTTTTGTTATAAAATTTTAGTATATATA [CACACA_negctrl_site1649] | 9.835 ± 0.064
ATGTTAATCATTAAAAATAAAGTTTAATATAAGAAT [XGTACX_negctrl_site155] | 10 ± 0.18
CAAAACAAGCAAAAATGTACTTGATAAATATTTTCT [XGTACX_site1776] | 10.8 ± 0.54
AACATACCCATATACACACACACATAAATACAGATA [CACACA_site4744] | 10.2 ± 0.24
AAATATTCTTGTTTAATACACACTGTAGTATTATAT [CACACA_site433] | 10.2 ± 0.2
TGTGCAAGATTTTTCTGTACATATATATAAATATAT [XGTACX_site1796] | 10.9 ± 0.67
GAATAAGATAGATATACACACCATTATAAATATAAA [CACACA_site5392] | 9.95 ± 0.18
GCTAAAAGTATATGCACACACATATATATGCACATA [CACACA_site1635] | 10.1 ± 0.14
TTTTGTACTTCATGCGTGCACAGAAATATATTATAT | 11.5 ± 0.93
TAAATACTAATATGTACACACATATAGATATAGATT [CACACA_site7247] | 11.3 ± 1
TTAAATAGATAAACTAAACACACAAAAAAAAAAAAA [CACACA_site8308] | 9.7 ± 0.16
AAAAAGGTTAAGGTAGTGCATAATAAAGAATATTAA | 10.4 ± 0.38
ATTTATATTTGTATTTGTACTTATATTTATATTTAT [XGTACX_site1540] | 11.1 ± 0.73
GCTTTTGTCATGTGCACACACGTATATATTATATAT [CACACA_site6146] | 10.7 ± 0.19
TTTTTTAAGTAATGAAATGATTTTCTTATAGAATAA [GTGCAC_negctrl_site395] | 9.575 ± 0.007
CATTAACATTTTATTACACACAATAATTTATAAGTA [CACACA_site4083] | 9.91 ± 0.042
CTATTATAATATTTTACACACCATGTAAAATATATA [CACACA_site3206] | 9.91 ± 0.13
ATCATTCTTCATTTGTCACACATGATAAAAATATAT [CACACA_site4953] | 10.2 ± 0.23
CTATTTTGGATGTGTACACATATATATATTTATATT [CACACA_site5706] | 11.7 ± 0.85
ATATAAAAAGGAAAAAGTACAAAAAAATGTTTGTGA [XGTACX_site8552] | 11.2 ± 0.74

Sequence | gcPBM binding intensity (ln)
AAGAAAATATATTCACATGAAGAATTAAAATAAAAC [TGCATGCA_negctrl_site119] | 9.93 ± 0.057
TTTTGTACAAAAATAATGCACACTATATCAAGTTTT [CACACA_site3595] | 10.9 ± 0.77
AAGCATACATCAAGCACACACACACCCACACCCACA [CACACA_site372] | 10.2 ± 0.34
AAATATATCAATATATATATATATATATATATATAT [XGTACX_negctrl_site544] | 9.82 ± 0.67
TAGGCCTTAAATCGTGTGCACTTTTTTTTTTTTTTT | 10.9 ± 0.69
TATGTGCCAAAACACACACACATATATATATATATA [CACACA_site469] | 10.4 ± 0.76
CAAATTATTATTTAAGCACACATGTTTATTTTTTTT [CACACA_site2672] | 9.92 ± 0.13
TTTTTTTTTTTTTTTTTTGGTGAGAGAAGAAAATTC [CACACA_negctrl_site950] | 9.97 ± 0.59
TATGGTAAATACAACACACACACATATGTATTTATA [CACACA_site4666] | 10.18 ± 0.071
ATTTATTTATATAATACACACAAATATCTTAATTAA [CACACA_site3993] | 10.1 ± 0.32
TGGATATAAAACAACGTGCACTTGGTTGATTTTAAA [GTGCAC_site9900] | 10.09 ± 0.092
ACCTGTAAAAATGTTTATATATATATATATATATAT [CACACA_negctrl_site1500] | 10.1 ± 0.55
TTAAGGATTAAGGTGTGTACATATAAATATTATATA [XGTACX_site7532] | 11.4 ± 0.76
CACAGACACGGACACACACACACACCCATATATATA [CACACA_site4354] | 11.2 ± 0.79
ATACAAGAATTAAACACACACAAAATATAAATTCTT [CACACA_site3005] | 9.61 ± 0.49
AGCAACCTGAAAAAATTACTCTTTCTTAAACAAATT [XGTACX_negctrl_site266] | 9.785 ± 0.078
AAAAAAAAAAAAAATTGTACATAATAAAAATATGGA [XGTACX_site3189] | 11 ± 0.64
TGTTTATTCTTTAAATATTATTCAAATACTACAAGT [CACACA_negctrl_site746] | 10.2 ± 0.44
GGATTGATAAGTGGTACACACATATAGATTATAGAT [CACACA_site7367] | 11.6 ± 1.1
CGGCACATTATATATACACACATATAAATAAATACA [CACACA_site4477] | 9.95 ± 0.13
TATATATATAAGTGCACACTGAACCAAGAAAATTAT [CACACA_site3008] | 10.4 ± 0.28
CGTATGCACAAATTATGTACTTATATATATATATAT [XGTACX_site2348] | 11.3 ± 0.91
